Reference: a compilation of properties of binary mixtures (doi:10.1021/acs.jced.1c00807)
Some of these densities may be calculated back from excess volumes.

Test: xn = mol fraction of the nth substance listed
Conditions: 100 kPa

COCCCC[n+]1ccn(C)c1.[Cl-] + O
mass density [kg/m3]
Conditions	288.15 K	293.15 K	298.15 K	303.15 K	308.15 K	313.15 K	318.15 K
x1 = 0.8301	1124.9	–	1118.8	–	1112.8	1109.8	1106.8
x1 = 0.8593	1125.2	1122.2	1119.2	1116.2	–	–	–
x1 = 0.886	1125.5	1122.5	1119.5	–	1113.5	–	1107.5
x1 = 0.9141	1125.8	1122.9	1119.9	1116.9	1113.9	–	1107.8
x1 = 0.9501	–	1123.3	1120.3	1117.3	1114.3	1111.3	1108.3
